Test results published in publication PMC4336329 (PLoS ONE, 2015).
The campaign covered roughly 310,000 compounds. About 14,000 (4.5%) showed an effect of 50% or more. Effects have a minus sign here. The list shows a part of the results.

The compounds below were run against human ether-à-go-go-related gene (hERG) potassium channel (human, UniProt Q12809) (assay: primary screen, population patch clamp on CHO cells stably expressing hERG).
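Note: peak tail current of the secondary pulse compared with the same well before compound.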

human ether-à-go-go-related gene (hERG) potassium channel, sequence (Q12809 whole entry, looked up): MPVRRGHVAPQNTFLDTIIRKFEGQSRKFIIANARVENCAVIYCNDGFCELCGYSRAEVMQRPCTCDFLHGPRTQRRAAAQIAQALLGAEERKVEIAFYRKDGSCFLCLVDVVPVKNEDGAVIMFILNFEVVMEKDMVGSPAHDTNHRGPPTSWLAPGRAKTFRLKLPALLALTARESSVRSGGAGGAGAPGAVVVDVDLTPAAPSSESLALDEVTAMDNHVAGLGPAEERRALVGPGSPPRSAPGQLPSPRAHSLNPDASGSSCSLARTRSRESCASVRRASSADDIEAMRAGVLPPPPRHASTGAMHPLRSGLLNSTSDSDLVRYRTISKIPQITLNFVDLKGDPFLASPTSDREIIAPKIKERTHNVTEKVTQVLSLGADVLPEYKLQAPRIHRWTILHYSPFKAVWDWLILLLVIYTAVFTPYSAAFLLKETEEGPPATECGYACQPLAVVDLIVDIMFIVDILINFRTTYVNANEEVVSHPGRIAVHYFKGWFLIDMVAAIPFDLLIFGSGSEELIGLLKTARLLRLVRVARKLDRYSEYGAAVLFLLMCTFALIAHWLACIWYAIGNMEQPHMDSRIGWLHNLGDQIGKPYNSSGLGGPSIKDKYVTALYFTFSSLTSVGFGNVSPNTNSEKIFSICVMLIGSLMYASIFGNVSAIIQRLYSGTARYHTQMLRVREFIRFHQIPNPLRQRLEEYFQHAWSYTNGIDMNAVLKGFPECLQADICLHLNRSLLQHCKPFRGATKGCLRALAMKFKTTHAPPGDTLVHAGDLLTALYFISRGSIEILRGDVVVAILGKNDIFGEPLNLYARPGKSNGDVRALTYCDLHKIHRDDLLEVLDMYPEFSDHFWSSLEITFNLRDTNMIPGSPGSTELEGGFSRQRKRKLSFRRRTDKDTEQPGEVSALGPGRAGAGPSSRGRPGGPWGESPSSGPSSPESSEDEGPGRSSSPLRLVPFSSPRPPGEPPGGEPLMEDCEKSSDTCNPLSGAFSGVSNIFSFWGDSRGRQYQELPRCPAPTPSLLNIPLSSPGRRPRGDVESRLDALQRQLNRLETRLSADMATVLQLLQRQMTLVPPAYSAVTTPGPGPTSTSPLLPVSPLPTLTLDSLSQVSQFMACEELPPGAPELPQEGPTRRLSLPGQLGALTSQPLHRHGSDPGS

Row | Structure (SMILES) | hERG current change (%, negative = inhibition) at 10uM
1 | O=C(OCN1C(=O)c2ccccc2C1=O)c1cccs1 | 9.62%
2 | CCOCCCNC(=O)c1cc(=O)n(Cc2cccc(C)c2)c2ccccc12 | -43.6%
3 | Cc1ccc(-c2c(C)sc3nc(CN4CCN(CC(=O)NC5CC5)CC4)[nH]c(=O)c23)cc1 | -71.5%
4 | COc1cccc(C(=O)N2CCC(C(=O)NCc3ccco3)CC2)c1 | -14.9%
5 | COc1ccc(OC)c(NC(=O)CSc2nnc(-c3cnccn3)n2C)c1 | 9.4%
6 | CC(C)C(C)NC(=O)COC(=O)c1cc(S(=O)(=O)N(C)C)ccc1N1CCCC1 (stereo not drawn) | 7.36%
7 | Cc1ccc(S(=O)(=O)Oc2ccc(/C=N/NC(=O)c3nn(C)cc3Cl)cc2)cc1 | 5.56%
8 | C=CCN(C(=O)CCc1ccccc1OC)c1nc(-c2ccc(S(C)(=O)=O)cc2)cs1 | 6.27%
9 | O=c1[nH]c2ccc(Cl)cc2c(-c2ccccc2)c1N1CCN(c2ccccn2)CC1 | 6.61%
10 | Cc1cc(=O)n2[nH]c(C)c(-c3ccccc3)c2n1 | 20.4%
11 | OCCCn1c(CCNc2nc(-c3ccc(Cl)cc3)cs2)nc2cc(C(F)(F)F)ccc21 | -0.705%
12 | CCC(=O)Nc1cccc(-c2cn3ccsc3n2)c1 | 7.63%
13 | CCCCOc1ccc(NC(=O)C(=O)NCCC2=CCCCC2)cc1 | 2.25%
14 | COc1ccc(/C=N/NC(=O)C2C3CCCCC32)cc1OC (stereo not drawn) | 4.78%
15 | COc1ccc(NC(=O)CSc2n[nH]c(C)c2[N+](=O)[O-])cc1 | 8.06%
16 | COc1cccc(C(C(=O)NC(C)(C)C)N(CCc2ccccc2)C(=O)CCC(=O)Nc2cc(C)on2)c1OC (stereo not drawn) | -1.05%
17 | O=C(CCN1C(=O)c2ccc([N+](=O)[O-])cc2C1=O)Nc1cccc(O)c1 | -0.271%
18 | Cc1ccc(C2SCC(C(=O)O)N2C(=O)c2ccc(F)cc2)cc1 (stereo not drawn) | 5.58%
19 | Cc1c(Cl)cccc1NC(=O)C1CCN(S(C)(=O)=O)CC1 | 7.22%
20 | O=C(c1ccco1)N(Cc1ccco1)c1ccc(O)cc1 | 10.6%
21 | COC(=O)C1CN(C(=O)COc2ccccc2C)c2ccccc2O1 (stereo not drawn) | 1.6%
22 | COc1ccccc1CNC(=O)CN1C(=O)c2ccc([N+](=O)[O-])cc2C1=O | 5.65%
23 | COc1cc(NC(=O)c2ccccc2-c2ccccc2)cc(OC)c1 | -32.4%
24 | CCOC(=O)N1CCN(S(=O)(=O)c2ccc(OC)c(OC)c2)CC1 | 3.2%
